The values below come from publication PMC5892938.

The list shows a part of the results. At the low end of the ranking the order means little.

The assay has as its target GST-SBP-SLBP (stem-loop binding protein) (UniProt Q14493). In words: targeted RNA Bind-n-Seq.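 Also: DESeq read counts versus GST-SBP nonspecific binding control pulldown.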 The note with it: RBNS binding buffer: 25 mM Tris pH 7.5, 150 mM KCl, 3 mM MgCl2, 0.1% Tween, 0.5 mg/mL BSA, 1 mM DTT; 27 nM protein, 750 pM RNA pool; temperature not stated; high values mean tight binding.
For “GGUCACGUCUCAAUCAACUCUACUCCCAGGGAAAUCCCUGGCUAAUUCAACAGCUCGCAGUCAAG”, the binding signal (log2 fold change) is -0.0905.

Consider “GGUCACGUCUCAAUCAACUCUUCGCCAGGAGUUUCCUCCUGUAAUUUCAACAGCUCGCAGUCAAG”, for which the binding signal (log2 fold change) was 0.111.

For the sequence “GGUCACGUCUCAAUCAACUCAUCAGAGGGGGGGAAAACCCCUUUACCCUCAUCAUCAACAGCUCGCAGUCAAG”, the binding signal (log2 fold change) is -0.283.

Regarding “GGUCACGUCUCAAUCAACUCCCCAGAGGGGGGGAAAACCCCUUUACCCUCACCGUCAACAGCUCGCAGUCAAG”, the binding signal (log2 fold change) is 0.0121.

On to “GGUCACGUCUCAAUCAACUCAACUUCAGGAGUUUGCUCCUGCAUUUUCAACAGCUCGCAGUCAAG”, for which the binding signal (log2 fold change) amounted to 0.0825.

Turning to “GGUCACGUCUCAAUCAACUCAUCUUCCAGGGAAAUCCCUGGCAUACUCAACAGCUCGCAGUCAAG”, the binding signal (log2 fold change) is -0.00853.

Turning to “GGUCACGUCUCAAUCAACUCAUCCCCCAGGGAAAGCCCUGGCAUACUCAACAGCUCGCAGUCAAG”, the binding signal (log2 fold change) is 0.0652.

“GGUCACGUCUCAAUCAACUCUUCGUCCAGGGAAAGCCCUGGCAUAUUCAACAGCUCGCAGUCAAG”: the binding signal (log2 fold change) is -0.192.

Regarding “GGUCACGUCUCAAUCAACUCUUCUUCAGGAGUUUCCUCCUGUUUUCUCAACAGCUCGCAGUCAAG”, the binding signal (log2 fold change) was -0.0536.

With “GGUCACGUCUCAAUCAACUCAUUUUCAGGAGUUUGCUCCUGCAAUUUCAACAGCUCGCAGUCAAG”, the binding signal (log2 fold change) is -0.0851.

Regarding “GGUCACGUCUCAAUCAACUCUACUCCCAGGGAAAUCCCUGGUUUUUUCAACAGCUCGCAGUCAAG”, the binding signal (log2 fold change) was -0.117.

“GGUCACGUCUCAAUCAACUCAUCCCCAGGAGUUUCCUCCUGCUAAUUCAACAGCUCGCAGUCAAG”: the binding signal (log2 fold change) was found to be 0.178.

For “GGUCACGUCUCAAUCAACUCAUACGAGGGGGGGAAAACCCCUUUACCCUCAUUAUCAACAGCUCGCAGUCAAG”, the binding signal (log2 fold change) was 0.07.

Turning to “GGUCACGUCUCAAUCAACUCUAAAGAGGGGGGGAAAACCCCUUUACCCUCACCGUCAACAGCUCGCAGUCAAG”, the binding signal (log2 fold change) was -0.124.

Consider “GGUCACGUCUCAAUCAACUCAACUCCAGGAGUUUUCUCCUGUUUUUUCAACAGCUCGCAGUCAAG”, for which the binding signal (log2 fold change) is -0.0548.

For “GGUCACGUCUCAAUCAACUCAAUAGAGGGGGGGAAAACCCCUUUACCCUCACAUUCAACAGCUCGCAGUCAAG”, the binding signal (log2 fold change) is -0.13.

With “GGUCACGUCUCAAUCAACUCAGUUCCAGGAGUUUCCUCCUGUUUUUUCAACAGCUCGCAGUCAAG”, the binding signal (log2 fold change) is -0.214.

Consider “GGUCACGUCUCAAUCAACUCUUUCUCAGGAGUUUUCUCCUGUAUUUUCAACAGCUCGCAGUCAAG”, for which the binding signal (log2 fold change) was found to be 0.00747.

With “GGUCACGUCUCAAUCAACUCAUCUCCAGGAGUUUUCUCCUGCAAUUUCAACAGCUCGCAGUCAAG”, the binding signal (log2 fold change) came out at 0.0492.

Take “GGUCACGUCUCAAUCAACUCAUUAGAGGGGGGGAAAACCCCUUUGCCCUCAAUCUCAACAGCUCGCAGUCAAG”: the binding signal (log2 fold change) is -0.0183.

As for “GGUCACGUCUCAAUCAACUCCCCAGAGGGGGGGAAAACCCCUUUACCCUCAAAUUCAACAGCUCGCAGUCAAG”, the binding signal (log2 fold change) came out at 0.402.

On to “GGUCACGUCUCAAUCAACUCAUCUCCAGGAGUUUACUCCUGUUAACUCAACAGCUCGCAGUCAAG”, for which the binding signal (log2 fold change) was -0.0291.

Turning to “GGUCACGUCUCAAUCAACUCUACUCCAGGAGUUUACUCCUGUUUUUUCAACAGCUCGCAGUCAAG”, the binding signal (log2 fold change) was -0.0335.

Take “GGUCACGUCUCAAUCAACUCUUUCCCCAGGGAAAUCCCUGGUUUUCUCAACAGCUCGCAGUCAAG”: the binding signal (log2 fold change) turned out to be 0.0315.

With “GGUCACGUCUCAAUCAACUCAAUUCCAGGAGUUUUCUCCUGCUAUCUCAACAGCUCGCAGUCAAG”, the binding signal (log2 fold change) was -0.0411.

Consider “GGUCACGUCUCAAUCAACUCUUCUUCAGGAGUUUCCUCCUGCAAUCUCAACAGCUCGCAGUCAAG”, for which the binding signal (log2 fold change) came out at 0.0291.

On to “GGUCACGUCUCAAUCAACUCUAUCUCCAGGGAAACCCCUGGCAUUCUCAACAGCUCGCAGUCAAG”, for which the binding signal (log2 fold change) was -0.0594.

“GGUCACGUCUCAAUCAACUCUUCUUCCAGGGAAAGCCCUGGUAAUCUCAACAGCUCGCAGUCAAG”: the binding signal (log2 fold change) was -0.104.

As for “GGUCACGUCUCAAUCAACUCUAUCCCAGGAGUUUUCUCCUGUUUUUUCAACAGCUCGCAGUCAAG”, the binding signal (log2 fold change) came to 0.0462.

Regarding “GGUCACGUCUCAAUCAACUCUAUCCCCAGGGAAAACCCUGGUAAUCUCAACAGCUCGCAGUCAAG”, the binding signal (log2 fold change) is -0.331.

Regarding “GGUCACGUCUCAAUCAACUCUUCCCCCAGGGAAAUCCCUGGCAAUCUCAACAGCUCGCAGUCAAG”, the binding signal (log2 fold change) was -0.178.

For the sequence “GGUCACGUCUCAAUCAACUCAAUCCCAGGAGUUUACUCCUGUAUACUCAACAGCUCGCAGUCAAG”, the binding signal (log2 fold change) was found to be 0.0902.

Turning to “GGUCACGUCUCAAUCAACUCAAUUUCCAGGGAAAUCCCUGGUAUACUCAACAGCUCGCAGUCAAG”, the binding signal (log2 fold change) worked out at 0.0713.

As for “GGUCACGUCUCAAUCAACUCUUUCUCCAGGGAAAUCCCUGGUAUACUCAACAGCUCGCAGUCAAG”, the binding signal (log2 fold change) is -0.0559.

“GGUCACGUCUCAAUCAACUCUUCCUCAGGAGUUUUCUCCUGUAUAUUCAACAGCUCGCAGUCAAG”: the binding signal (log2 fold change) is -0.094.

Take “GGUCACGUCUCAAUCAACUCUAUAGAGGGGGGGAAAACCCCUUUACCCUCCAAUUCAACAGCUCGCAGUCAAG”: the binding signal (log2 fold change) was 0.227.

As to “GGUCACGUCUCAAUCAACUCUUUUUCAGGAGUUUUCUCCUGCUAUUUCAACAGCUCGCAGUCAAG”, the binding signal (log2 fold change) worked out at 0.086.

In the case of “GGUCACGUCUCAAUCAACUCAAAAGAGGGGGGGAAAACCCCUUUACCCUCAAGAUCAACAGCUCGCAGUCAAG”, the binding signal (log2 fold change) is -0.129.

Turning to “GGUCACGUCUCAAUCAACUCCCUCGAGGGGGGGAAAACCCCUUUACCCUCACCAUCAACAGCUCGCAGUCAAG”, the binding signal (log2 fold change) is 0.017.

Regarding “GGUCACGUCUCAAUCAACUCCUUCGAGGGGGGGAAAACCCCUUUACCCUCUCAAUCAACAGCUCGCAGUCAAG”, the binding signal (log2 fold change) is -0.264.

Consider “GGUCACGUCUCAAUCAACUCUUCUUCAGGAGUUUUCUCCUGUAAUGUCAACAGCUCGCAGUCAAG”, for which the binding signal (log2 fold change) was -0.107.

On to “GGUCACGUCUCAAUCAACUCAGUCUCAGGAGUUUACUCCUGUUUUUUCAACAGCUCGCAGUCAAG”, for which the binding signal (log2 fold change) is -0.0775.

Consider “GGUCACGUCUCAAUCAACUCCUCAGAGGGGGGGAAAACCCCUUUGCCCUCAUAUUCAACAGCUCGCAGUCAAG”, for which the binding signal (log2 fold change) was -0.0359.

With “GGUCACGUCUCAAUCAACUCUUCCCCCAGGGAAACCCCUGGUAUUUUCAACAGCUCGCAGUCAAG”, the binding signal (log2 fold change) amounted to 0.0885.

Take “GGUCACGUCUCAAUCAACUCUUAAGAGGGGGGGAAAACCCCUUUGCCCUCAUUAUCAACAGCUCGCAGUCAAG”: the binding signal (log2 fold change) was found to be 0.141.

On to “GGUCACGUCUCAAUCAACUCAUCUUCAGGAGUUUCCUCCUGUUUAUUCAACAGCUCGCAGUCAAG”, for which the binding signal (log2 fold change) is -0.0211.

As to “GGUCACGUCUCAAUCAACUCAAUCGCAGGAGUUUCCUCCUGGUUAUUCAACAGCUCGCAGUCAAG”, the binding signal (log2 fold change) stood at 0.0382.
